Results on 115 sequences are retold here after the BET-seq Pho4 binding data (Le et al. 2018).

Some of the results follow. The energies were worked out here from pooled read counts, against the library average; single values are noisy.

The target in this experiment is T1, Pho4 (S. cerevisiae) (UniProt P07270).
T1 sequence: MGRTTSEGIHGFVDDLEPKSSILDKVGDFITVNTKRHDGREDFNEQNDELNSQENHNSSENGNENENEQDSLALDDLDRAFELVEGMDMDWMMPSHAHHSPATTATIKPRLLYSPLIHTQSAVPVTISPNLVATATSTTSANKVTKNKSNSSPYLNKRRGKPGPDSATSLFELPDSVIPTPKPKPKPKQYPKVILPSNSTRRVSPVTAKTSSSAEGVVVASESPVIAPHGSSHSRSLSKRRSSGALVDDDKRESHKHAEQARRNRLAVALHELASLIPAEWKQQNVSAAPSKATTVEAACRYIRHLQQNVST
Kind of experiment: relative binding free energy (BET-seq); higher = weaker binding. Conditions: reference: library average.
Consider GCGTGCACGTGTGTAG, for which the “relative binding free energy” value is 0.07 kcal/mol. The same measure for GTTGTCACGTGTGAGG: 0.22 kcal/mol. In the case of TTGGACACGTGAGGAT, the “relative binding free energy” value worked out at 0.28 kcal/mol. The same measure for TGGATCACGTGTTTCT: 0.16 kcal/mol; for TCGTTCACGTGGAGCT: 0.29 kcal/mol. The same measure for AGATGCACGTGTGGAG: 0.15 kcal/mol; for GGAGTCACGTGAATTA: 0.27 kcal/mol. With TTCTTCACGTGTTGCA, the “relative binding free energy” value stood at 0.27 kcal/mol. Then CGTGGCACGTGTAAAT, with 0.08 kcal/mol; and TTAGTCACGTGATCAG, with 0.07 kcal/mol; and GGTATCACGTGGCGTC, with 0.08 kcal/mol.

On to AGTTGCACGTGGGTGT, for which the “relative binding free energy” value was -0.12 kcal/mol. Then AAGTTCACGTGGCATG, with 0.11 kcal/mol. For AGTAACACGTGGTGAA, the “relative binding free energy” value is -0.09 kcal/mol. The same measure for ACGGTCACGTGTGGTC: 0.14 kcal/mol; for GTGGACACGTGTTGGG: 0.16 kcal/mol; for TCGAACACGTGTTGTG: -0.08 kcal/mol. The same measure for GGGGGCACGTGGTGGC: -0.12 kcal/mol. The same measure for GATGGCACGTGTTATA: -0.1 kcal/mol; for TTATGCACGTGCAAGT: 0.04 kcal/mol; for TGGTGCACGTGCAGAG: -0.13 kcal/mol. Turning to TTCGACACGTGTAGTG, the “relative binding free energy” value stood at 0.09 kcal/mol. The same measure for ATTAGCACGTGTCAGT: 0.06 kcal/mol.

In the case of TGGGCCACGTGGGAGT, the “relative binding free energy” value is -0.2 kcal/mol. Then TCGTGCACGTGGTGGA, with 0 kcal/mol; and TTGGGCACGTGGATAA, with -0.07 kcal/mol; and TGAGTCACGTGTGTGT, with 0.15 kcal/mol. The same measure for ATAGACACGTGCATGG: 0.11 kcal/mol. The same measure for ACTTGCACGTGTATTT: 0.05 kcal/mol; for TGGAGCACGTGTTTAC: 0.05 kcal/mol; for TATGGCACGTGTAGCG: -0.1 kcal/mol. As for ATAGTCACGTGGCTGT, the “relative binding free energy” value stood at 0.03 kcal/mol.

On to GCGAGCACGTGTTGTG, for which the “relative binding free energy” value worked out at 0.04 kcal/mol.

For the sequence TGGGTCACGTGCTTTA, the “relative binding free energy” value was found to be 0.12 kcal/mol. The same measure for TATTTCACGTGACAGG: 0.32 kcal/mol; for GAGTCCACGTGGTAGG: 0.11 kcal/mol; for TGATTCACGTGGAGAA: 0.34 kcal/mol.

With GTTATCACGTGTGCCG, the “relative binding free energy” value was determined as 0.34 kcal/mol. As for AGGGGCACGTGAGGGT, the “relative binding free energy” value is 0.14 kcal/mol. The same measure for TATGTCACGTGATCGG: 0.26 kcal/mol.

As to CTGGCCACGTGGGGTG, the “relative binding free energy” value was -0.21 kcal/mol. Then TGTAACACGTGGGGCT, with -0.09 kcal/mol; and ATTGCCACGTGGGGGC, with -0.19 kcal/mol. The same measure for GTTCTCACGTGTTAGA: 0.38 kcal/mol; for GGAATCACGTGGTAGT: 0.25 kcal/mol; for TAAGTCACGTGATGAG: 0.16 kcal/mol.

TTACGCACGTGGGGTT: the “relative binding free energy” value was -0.24 kcal/mol. The same measure for ATGTACACGTGAACGG: 0.31 kcal/mol. Then GTACACACGTGTGGTT, with -0.01 kcal/mol.

As to GTCTTCACGTGGTATA, the “relative binding free energy” value stood at 0.37 kcal/mol. The same measure for GGTTTCACGTGAGGAT: 0.33 kcal/mol; for GTGAACACGTGCAGTG: 0.08 kcal/mol. The same measure for ATATACACGTGCGGGT: -0.08 kcal/mol. The same measure for AATTGCACGTGTTAAA: 0.08 kcal/mol; for AAGGGCACGTGTGGGC: -0.11 kcal/mol; for CTAGGCACGTGGTGTG: -0.35 kcal/mol. For AGGTACACGTGGGGGC, the “relative binding free energy” value stood at 0 kcal/mol.

Turning to TACGTCACGTGCGTGT, the “relative binding free energy” value was -0.06 kcal/mol. Take AGGGCCACGTGTTTAT: the “relative binding free energy” value is -0.03 kcal/mol.

GGAGACACGTGTGTTT: the “relative binding free energy” value came to 0.07 kcal/mol. The same measure for TGATTCACGTGTTTAG: 0.33 kcal/mol; for TTGGGCACGTGACTTA: -0.03 kcal/mol; for AGGGGCACGTGGGTTT: -0.24 kcal/mol. The same measure for GAGTACACGTGCGGGT: 0.04 kcal/mol; for TTAGTCACGTGGGCGC: -0.12 kcal/mol; for TTGGACACGTGTCTTT: 0.1 kcal/mol. The same measure for GGTGGCACGTGGCGGC: -0.19 kcal/mol; for GCTGGCACGTGGTAGG: -0.01 kcal/mol. For the sequence TTCTTCACGTGTTATC, the “relative binding free energy” value was 0.29 kcal/mol.

Turning to CGTGGCACGTGAGGCA, the “relative binding free energy” value was determined as 0.17 kcal/mol. The same measure for TTATTCACGTGTTGCT: 0.23 kcal/mol; for GGACTCACGTGGCGGG: 0.24 kcal/mol.

In the case of GGGTTCACGTGTCGGC, the “relative binding free energy” value was 0.39 kcal/mol.

In the case of GGTTACACGTGAGTGT, the “relative binding free energy” value came to 0.35 kcal/mol. Then TAATTCACGTGGCAGG, with 0.1 kcal/mol. The same measure for GGCTTCACGTGCATGG: 0.37 kcal/mol. The same measure for TAGTCCACGTGGTGGA: 0.02 kcal/mol. Regarding ATTTACACGTGGTTCG, the “relative binding free energy” value is -0.01 kcal/mol. Then AAGGGCACGTGCCGGT, with -0.25 kcal/mol. Then TTATACACGTGCTTTA, with -0.01 kcal/mol.

For the sequence TTCGGCACGTGGATTT, the “relative binding free energy” value was determined as 0.11 kcal/mol. Then TGGGACACGTGCGCGG, with -0.08 kcal/mol; and AATTTCACGTGTCATG, with 0.25 kcal/mol; and CGTGACACGTGTGATG, with -0.01 kcal/mol.

Turning to TTGTTCACGTGGGAAT, the “relative binding free energy” value stood at 0.24 kcal/mol. Take TAGGACACGTGTCAGG: the “relative binding free energy” value came out at 0.04 kcal/mol.

On to GATAGCACGTGTTTGA, for which the “relative binding free energy” value is -0.05 kcal/mol. The same measure for AGTGTCACGTGCTTTA: -0.12 kcal/mol; for TATTTCACGTGCTTGT: 0.14 kcal/mol; for GGGAGCACGTGGGCAC: -0.11 kcal/mol. Then TGTCACACGTGGAGTT, with -0.02 kcal/mol; and TTACGCACGTGCGTGT, with -0.13 kcal/mol; and GGGTTCACGTGGGCTT, with 0.27 kcal/mol.

Take AGTATCACGTGGAAGG: the “relative binding free energy” value came to 0.16 kcal/mol. Then TGCGACACGTGGGTGG, with -0.19 kcal/mol. The same measure for TTTGACACGTGGTTCA: -0.13 kcal/mol; for GAGGTCACGTGCTGGG: 0.04 kcal/mol; for TGCTTCACGTGTGATT: 0.28 kcal/mol. The same measure for GGTTTCACGTGTTTTT: 0.42 kcal/mol; for AGTTTCACGTGGGGGT: 0.19 kcal/mol. As for TTGAACACGTGCGGGG, the “relative binding free energy” value came out at 0.06 kcal/mol. The same measure for AGTAGCACGTGGGAGA: -0.07 kcal/mol. The same measure for TTATGCACGTGGCATT: -0.21 kcal/mol. The same measure for AGGAACACGTGGCGTG: -0.09 kcal/mol; for GGTGTCACGTGGTCAC: 0.08 kcal/mol. Consider TTAGGCACGTGGCTCT, for which the “relative binding free energy” value came to 0 kcal/mol. Then TAAAGCACGTGGTTTT, with -0.12 kcal/mol; and GTGATCACGTGCTTTG, with 0.08 kcal/mol. The same measure for TGCCGCACGTGGGGGC: -0.3 kcal/mol; for GGGGGCACGTGAAGAT: 0.18 kcal/mol. The same measure for TGGTGCACGTGGATTC: 0.14 kcal/mol. For ACGGTCACGTGTATGT, the “relative binding free energy” value came out at 0.09 kcal/mol. Regarding TTTAGCACGTGATTGG, the “relative binding free energy” value stood at 0.03 kcal/mol.

On to GGGATCACGTGGGAGA, for which the “relative binding free energy” value came out at 0.09 kcal/mol.

Regarding ACGATCACGTGTGTTA, the “relative binding free energy” value stood at 0.26 kcal/mol.
